Test [1] relates to HSkMC (human skeletal muscle cells). Description: cytotoxicity call (relative viability < 0.9). Particulars: 10 µM.
Test [2] concerns S. aureus RN4220. Description: growth inhibition call (relative growth <= 0.2). To be noted: 50 µM.

Structures are written as SMILES. Some of the results follow.

As to `Cc1noc(C)c1NC(=O)N[C@H]1C=C[C@@H](CC(=O)NCCCN(C)C)O[C@H]1CO`, the cytotoxicity call in test [1] was “inactive”. The growth inhibition call in test [2] is “inactive”.
Consider `COCCNC(=O)C[C@H]1CC[C@@H](NS(=O)(=O)c2ccc(C)cc2)[C@H](CO)O1`, for which the cytotoxicity call in test [1] was “inactive”. Besides, in test [2], the growth inhibition call is “inactive”.
On to `C[C@@H]1CCCCO[C@H](CN(C)C(=O)Nc2cccc3ccccc23)[C@@H](C)CN([C@H](C)CO)C(=O)c2cc(NC(=O)C3CCCCC3)ccc2O1`, for which the cytotoxicity call in test [1] is “inactive”. Further, the growth inhibition call in test [2] was “inactive”.
For the compound `C1=C(c2ccccc2)CC(c2ccccc2)=NN=C1c1ccccc1`, the cytotoxicity call in test [1] is “inactive”. In test [2], the growth inhibition call is “inactive”.
On to `O=C(C[C@H]1CC[C@H]2[C@@H](COC[C@@H](O)CN2S(=O)(=O)c2ccc(F)cc2)O1)N[C@H]1CCN(Cc2ccccc2)C1`, for which the cytotoxicity call in test [1] is “inactive”. Moreover, in test [2], the growth inhibition call is “inactive”.
On to `O=C(N[C@@H]1CC[C@H](CCNS(=O)(=O)c2ccccc2)O[C@@H]1CO)c1cnccn1`, for which the cytotoxicity call in test [1] is “inactive”. Also, the growth inhibition call in test [2] was “inactive”.
In the case of `Cc1cc(C(=O)Nc2cccc3c2O[C@@H](CN(C)Cc2ccncc2)[C@@H](C)CN([C@H](C)CO)C3=O)n(C)n1`, in test [1], the cytotoxicity call is “inactive”. Besides, the growth inhibition call in test [2] was “inactive”.
With `COc1ccc(NC(=O)Nc2ccc3c(c2)C(=O)N([C@@H](C)CO)C[C@@H](C)[C@H](CN(C)C(=O)Nc2cccc4ccccc24)O3)cc1`, the cytotoxicity call in test [1] was “inactive”. In test [2], the growth inhibition call is “inactive”.
Take `Cc1noc(C)c1NC(=O)Nc1cccc2c1O[C@@H](CN(C)Cc1ccc(Cl)c(Cl)c1)[C@@H](C)CN([C@@H](C)CO)C2=O`: the cytotoxicity call in test [1] was “inactive”. For the same compound, the growth inhibition call in test [2] was “inactive”.
Take `C[C@@H]1CCCCO[C@H](CN(C)Cc2ccc(C(F)(F)F)cc2)[C@H](C)CN([C@H](C)CO)C(=O)c2cc(NC(=O)CCC(F)(F)F)ccc2O1`: the cytotoxicity call in test [1] was “inactive”. The growth inhibition call in test [2] is “inactive”.
As to `CCCNC(=O)Cn1c(=O)n(C)c2ccccc21`, the cytotoxicity call in test [1] was “inactive”. Moreover, in test [2], the growth inhibition call is “inactive”.
As to `C[C@@H]1CCCCO[C@H](CN(C)Cc2ccccc2)[C@@H](C)CN([C@H](C)CO)C(=O)c2cc(NC(=O)c3ccncc3)ccc2O1`, the cytotoxicity call in test [1] is “inactive”. In test [2], the growth inhibition call is “inactive”.
On to `COC(=O)c1c(CC[C@@H](CO)NC(=O)N2CCC[C@H]2Cn2cc(-c3ccccn3)nn2)oc(C(C)=O)c1C(=O)OC`, for which the cytotoxicity call in test [1] is “inactive”. Also, the growth inhibition call in test [2] was “inactive”.
For `C[C@@H]1CN([C@H](C)CO)C(=O)Cc2cc(NS(=O)(=O)c3ccc(Cl)cc3)ccc2O[C@H]1CN(C)S(C)(=O)=O`, the cytotoxicity call in test [1] was “inactive”. For the same compound, the growth inhibition call in test [2] was “inactive”.
Turning to `O=C(c1ccccc1O)N1CCOCC1`, in test [1], the cytotoxicity call was “inactive”. In addition, in test [2], the growth inhibition call is “inactive”.
As to `C[C@H]1CN([C@@H](C)CO)C(=O)c2cc(NC(=O)Nc3ccc(C(F)(F)F)cc3)ccc2O[C@H]1CN(C)C(=O)NC1CCCCC1`, in test [1], the cytotoxicity call was “inactive”. Besides, the growth inhibition call in test [2] is “inactive”.
In the case of `C[C@@H]1CN([C@@H](C)CO)C(=O)c2cccc(NC(=O)Nc3ccccc3)c2O[C@H]1CN(C)Cc1ccc(Oc2ccccc2)cc1`, in test [1], the cytotoxicity call was “inactive”. The growth inhibition call in test [2] was “inactive”.
`COC(=O)c1c[nH]c(=S)n1C`: the cytotoxicity call in test [1] is “inactive”. The growth inhibition call in test [2] is “inactive”.
As to `CO[C@@H]1CN(C)C(=O)c2ccc(NC(=O)C3CC3)cc2OC[C@@H](C)N(C(=O)C2CCOCC2)C[C@H]1C`, in test [1], the cytotoxicity call is “inactive”. In test [2], the growth inhibition call was “inactive”.
On to `C[C@H](CO)N1C[C@H](C)[C@@H](CN(C)Cc2ccc3c(c2)OCO3)OCCCC[C@H](C)Oc2ccc(NC(=O)CCC(F)(F)F)cc2C1=O`, for which the cytotoxicity call in test [1] was “inactive”. Besides, the growth inhibition call in test [2] is “inactive”.
Regarding `C[C@H](CO)N1C[C@H](C)[C@@H](CN(C)C(=O)C2CC2)OCc2cnnn2CCCC1=O`, the cytotoxicity call in test [1] is “inactive”. Moreover, in test [2], the growth inhibition call is “inactive”.
Regarding `C[C@@H]1CCCCO[C@@H](CN(C)S(=O)(=O)c2ccc(F)cc2)[C@H](C)CN([C@@H](C)CO)C(=O)c2cc(NC(=O)Nc3ccc(C(F)(F)F)cc3)ccc2O1`, the cytotoxicity call in test [1] is “inactive”. In addition, the growth inhibition call in test [2] is “inactive”.
`C[C@H]1CN([C@@H](C)CO)S(=O)(=O)c2ccc(C#CC3CCCC3)cc2O[C@H]1CN(C)Cc1cncnc1`: the cytotoxicity call in test [1] was “inactive”. In addition, the growth inhibition call in test [2] is “inactive”.
In the case of `C[C@@H]1CN([C@@H](C)CO)C(=O)c2cccc(NC(=O)c3ccc(-c4nccs4)cc3)c2O[C@H]1CN(C)C(=O)Nc1ccccc1`, the cytotoxicity call in test [1] was “inactive”. Besides, in test [2], the growth inhibition call was “inactive”.
On to `C[C@H]1CN([C@@H](C)CO)C(=O)Cc2cc(NC(=O)NC3CCCCC3)ccc2O[C@@H]1CN(C)C(=O)Nc1cccc2ccccc12`, for which the cytotoxicity call in test [1] was “inactive”. In addition, the growth inhibition call in test [2] was “inactive”.
As for `C[C@H](CO)N1C[C@H](C)[C@H](CN(C)CC2CCCCC2)Oc2c(NC(=O)c3cnccn3)cccc2C1=O`, the cytotoxicity call in test [1] was “inactive”. Moreover, the growth inhibition call in test [2] was “inactive”.
Consider `C[C@H]1CCCCO[C@@H](CN(C)S(=O)(=O)c2ccc(Cl)cc2)[C@@H](C)CN([C@@H](C)CO)C(=O)c2cc(NC(=O)CCC(F)(F)F)ccc2O1`, for which the cytotoxicity call in test [1] was “inactive”. Further, the growth inhibition call in test [2] is “inactive”.
As for `C[C@H](CO)N1C[C@H](C)[C@@H](CN(C)Cc2ccc(C(F)(F)F)cc2)Oc2ccc(NC(=O)CCC(F)(F)F)cc2CC1=O`, in test [1], the cytotoxicity call was “inactive”. Also, the growth inhibition call in test [2] was “inactive”.
For the compound `CC(C)CC#Cc1ccc2c(c1)O[C@H](CN(C)C(=O)c1ccccn1)[C@H](C)CN([C@H](C)CO)S2(=O)=O`, in test [1], the cytotoxicity call was “inactive”. For the same compound, the growth inhibition call in test [2] is “inactive”.
With `CCCNC(=O)N1C[C@@H](O)COC[C@H]2O[C@H](CC(=O)N3CCN(C)CC3)CC[C@@H]21`, the cytotoxicity call in test [1] is “inactive”. In addition, the growth inhibition call in test [2] was “inactive”.
Turning to `C[C@H](CO)N1C[C@H](C)[C@@H](CN(C)C(=O)Nc2ccc(C(F)(F)F)cc2)OCCCC[C@H](C)Oc2ccc(NC(=O)Nc3ccc(F)cc3)cc2C1=O`, in test [1], the cytotoxicity call is “inactive”. The growth inhibition call in test [2] is “inactive”.
